# The list shows a part of the results. At the low end of the ranking the order means little.
# Molecular target: GST-SBP-SLBP (stem-loop binding protein) (UniProt Q14493)
# Test: targeted RNA Bind-n-Seq;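 also: DESeq read counts versus GST-SBP nonspecific binding control pulldown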
# Conditions: RBNS binding buffer: 25 mM Tris pH 7.5, 150 mM KCl, 3 mM MgCl2, 0.1% Tween, 0.5 mg/mL BSA, 1 mM DTT; 27 nM protein, 750 pM RNA pool; temperature not stated; high values mean tight binding
row,Sequence,binding signal (log2 fold change)
1,GGUCACGUCUCAAUCAACUCAUUCGCAGGAGUUUUCUCCUGGUUUUUCAACAGCUCGCAGUCAAG,-0.198
2,GGUCACGUCUCAAUCAACUCCUAAGAGGGGGGGAAAACCCCUUUACCCUCCACAUCAACAGCUCGCAGUCAAG,0.0401
3,GGUCACGUCUCAAUCAACUCAAUCCCAGGAGUUUUCUCCUGUUAAUUCAACAGCUCGCAGUCAAG,-0.176
4,GGUCACGUCUCAAUCAACUCAUGUCCAGGAGUUUACUCCUGCUAAUUCAACAGCUCGCAGUCAAG,-0.0995
5,GGUCACGUCUCAAUCAACUCAUCGCCCAGGGAAACCCCUGGUAAUCUCAACAGCUCGCAGUCAAG,0.0303
6,GGUCACGUCUCAAUCAACUCAUCCUCAGGAGUUUACUCCUGCUUAUUCAACAGCUCGCAGUCAAG,0.0841
7,GGUCACGUCUCAAUCAACUCUAUCUCAGGAGUUUCCUCCUGCUAACUCAACAGCUCGCAGUCAAG,0.187
8,GGUCACGUCUCAAUCAACUCAUUCUCAGGAGUUUCCUCCUGCAUUCUCAACAGCUCGCAGUCAAG,0.0471
9,GGUCACGUCUCAAUCAACUCCUAAGAGGGGGGGAAAACCCCUUUACCCUCACAAUCAACAGCUCGCAGUCAAG,-0.591
10,GGUCACGUCUCAAUCAACUCAUCUCCAGGAGUUUGCUCCUGCUAUUUCAACAGCUCGCAGUCAAG,5.34e-05
11,GGUCACGUCUCAAUCAACUCAUCCUCCAGGGAAAUCCCUGGCUAACUCAACAGCUCGCAGUCAAG,0.0691
12,GGUCACGUCUCAAUCAACUCAUCCCCCAGGGAAAACCCUGGUAAUCUCAACAGCUCGCAGUCAAG,-0.23
13,GGUCACGUCUCAAUCAACUCUUCCCCAGGAGUUUCCUCCUGUAUAUUCAACAGCUCGCAGUCAAG,0.144
14,GGUCACGUCUCAAUCAACUCAUCAGAGGGGGGGAAAACCCCUUUACCCUCGUUCUCAACAGCUCGCAGUCAAG,0.21
15,GGUCACGUCUCAAUCAACUCAAUUUCCAGGGAAAACCCUGGCAUACUCAACAGCUCGCAGUCAAG,-0.173
16,GGUCACGUCUCAAUCAACUCUUUCUCCAGGGAAAACCCUGGUUUAUUCAACAGCUCGCAGUCAAG,-0.172
17,GGUCACGUCUCAAUCAACUCUAUCUCAGGAGUUUUCUCCUGUUUUCUCAACAGCUCGCAGUCAAG,0.0085
18,GGUCACGUCUCAAUCAACUCAACUCCCAGGGAAAUCCCUGGUAAUCUCAACAGCUCGCAGUCAAG,-0.103
19,GGUCACGUCUCAAUCAACUCAUCCCCAGGAGUUUACUCCUGUUAAUUCAACAGCUCGCAGUCAAG,0.0839

row,Sequence,binding signal (log2 fold change)
1,GGUCACGUCUCAAUCAACUCAUACGAGGGGGGGAAAACCCCUUUACCCUCAUCUUCAACAGCUCGCAGUCAAG,-0.118
2,GGUCACGUCUCAAUCAACUCAUCCUCAGGAGUUUCCUCCUGCUAUUUCAACAGCUCGCAGUCAAG,0.0907
3,GGUCACGUCUCAAUCAACUCAUCGCCAGGAGUUUACUCCUGCAAUUUCAACAGCUCGCAGUCAAG,-0.0847
4,GGUCACGUCUCAAUCAACUCAAUCUCCAGGGAAAACCCUGGCAUUCUCAACAGCUCGCAGUCAAG,0.0482
5,GGUCACGUCUCAAUCAACUCAUCGUCAGGAGUUUUCUCCUGUUAUCUCAACAGCUCGCAGUCAAG,-0.02
6,GGUCACGUCUCAAUCAACUCUAUUUCCAGGGAAAACCCUGGUUUUCUCAACAGCUCGCAGUCAAG,-0.0315
7,GGUCACGUCUCAAUCAACUCUUCUUCCAGGGAAAUCCCUGGUUUACUCAACAGCUCGCAGUCAAG,0.00957
8,GGUCACGUCUCAAUCAACUCAAUCUCAGGAGUUUACUCCUGUAUAGUCAACAGCUCGCAGUCAAG,-0.00804
9,GGUCACGUCUCAAUCAACUCAUUCCCCAGGGAAACCCCUGGCUUUUUCAACAGCUCGCAGUCAAG,-0.00462
10,GGUCACGUCUCAAUCAACUCAAUCUCAGGAGUUUUCUCCUGUAAAGUCAACAGCUCGCAGUCAAG,-0.0456
11,GGUCACGUCUCAAUCAACUCAACUUCAGGAGUUUACUCCUGCAUAUUCAACAGCUCGCAGUCAAG,0.194
12,GGUCACGUCUCAAUCAACUCUCAAGAGGGGGGGAAAACCCCUUUACCCUCCUACUCAACAGCUCGCAGUCAAG,-0.52
13,GGUCACGUCUCAAUCAACUCGUCUUCAGGAGUUUACUCCUGCAAUUUCAACAGCUCGCAGUCAAG,-0.0565
14,GGUCACGUCUCAAUCAACUCAACUUCCAGGGAAAACCCUGGCAUAUUCAACAGCUCGCAGUCAAG,-0.152
15,GGUCACGUCUCAAUCAACUCAUCUUCCAGGGAAAACCCUGGUUUACUCAACAGCUCGCAGUCAAG,-0.0503
16,GGUCACGUCUCAAUCAACUCAAUCCCAGGAGUUUUCUCCUGUAUGUUCAACAGCUCGCAGUCAAG,0.191
17,GGUCACGUCUCAAUCAACUCUAUUCCCAGGGAAAACCCUGGCAAACUCAACAGCUCGCAGUCAAG,-0.0282
18,GGUCACGUCUCAAUCAACUCAUUUUCAGGAGUUUCCUCCUGCUUAGUCAACAGCUCGCAGUCAAG,0.0303

# From PMC5892938
